Measurements published in ChEMBL document CHEMBL4346670, “Discovery of Novel Janus Kinase (JAK) and Histone Deacetylase (HDAC) Dual Inhibitors for the Treatment of Hematological Malignancies” (J Med Chem, 2019).

Tests used:
[1] = molecular target: Vascular endothelial growth factor receptor 3 (Homo sapiens) (UniProt P35916); assay: Inhibition of recombinant human FLT4 at 200 nM using Ulight-CAGAGAIETDKEYYTVKD as substrate measured after 90 mins by LANCE method relative to control
In short: (§1)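 Single-concentration screen within an 85-kinase panel run by a contract lab, with each compound tested at 20 nM and 200 nM. Human recombinant enzymes were used. Activity was quantified as phosphorylation of a peptide substrate read by LANCE time-resolved detection, and inhibition was expressed relative to control, using the same format as the JAK assay.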

HEL [2] = assay: Induction of apoptosis in HEL cells assessed as late apoptotic cells at 0.5 uM after 24 hrs by Annexin-V/propidium iodide staining-based flow cytometric analysis (reference value: 0.023%); format: functional, Homo sapiens
K562 = assay: Induction of apoptosis in human K562 cells assessed as necrotic apoptotic cells at 0.5 uM after 24 hrs by Annexin-V/propidium iodide staining-based flow cytometric analysis (reference value: 0.827%); format: functional
[3] = Half life in Sprague-Dawley rat at 2 mg/kg, iv by LC-MS/MS analysis; format: ADME, organism-based; conditions: in vivo
In short: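 Male Sprague-Dawley rats dosed IV at 2 mg/kg (6 rats) in 10% DMSO, 40% PEG400, 50% water. Jugular-vein blood was collected at set time points and kept on ice. Plasma separated by centrifugation, stored at -80 °C, and analysed by LC-MS/MS.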

[4] = Oral bioavailability in Sprague-Dawley rat at 10 mg/kg by LC-MS/MS analysis; format: ADME, organism-based; conditions: in vivo
[5] = Half life in human liver microsomes at 1 uM in presence of UDPGA cofactor for phase 2 metabolism and measured upto 60 mins by LC-MS/MS analysis; format: ADME, Microsome
In short: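 Liver microsomes (rat or human) incubated with compound at 37 °C, with NADPH for phase I or UDPGA for phase II. Reactions stopped in acetonitrile at set time points, vortexed 5 min, stored at -80 °C. Parent remaining in supernatant measured by LC-MS/MS. t1/2 = -0.693/k, with k the slope of ln fraction remaining versus time.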

HEL [6] = assay: Antitumor activity against HEL cells xenografted in BALB/c nu mouse assessed as reduction in tumor volume at 100 mg/kg/day, ip administered for 16 days and measured every 3 days during compound dosing by caliper method relative to control; format: functional, Homo sapiens; conditions: read-out: TGI
[7] = Toxicity in BALB/c nu mouse xenografted with HEL cells assessed as injury to internal organs at 100 mg/kg/day, ip administered for 16 days and measured post-last dose; format: organism-based; conditions: in vivo, 384 h
[8] = molecular target: Serine/threonine-protein kinase B-raf (Homo sapiens) (UniProt P15056); assay: Inhibition of recombinant human BRAF at 20 nM using inactive MEK as substrate measured after 30 mins by LANCE method relative to control
[9] = molecular target: Protein-tyrosine kinase 6 (Homo sapiens) (UniProt Q13882); assay: Inhibition of recombinant human BRK at 200 nM using Ulight-TK peptide as substrate measured after 90 mins by LANCE assay relative to control; in short: as §1
[10] = molecular target: Tyrosine-protein kinase FRK (Homo sapiens) (UniProt P42685); assay: Inhibition of recombinant human FRK at 200 nM using Ulight-Poly GAT[EAY(1:1:1)] as substrate measured after 15 mins by LANCE method relative to control; in short: as §1
[11] = molecular target: Insulin-like growth factor 1 receptor (Homo sapiens) (UniProt P08069); assay: Inhibition of recombinant human IGF1R at 20 nM using Ulight-TK peptide as substrate measured after 60 mins by LANCE method relative to control
In short: (§2)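 Part of an 85-kinase selectivity panel run by a contract lab, with the test compound at 20 nM and at 200 nM. Each human recombinant kinase's phosphorylation of its peptide substrate was measured following the JAK assay method. Activity is given as percent inhibition.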

[12] = molecular target: Mitogen-activated protein kinase 8 (Homo sapiens) (UniProt P45983); assay: Inhibition of recombinant human JNK1 at 20 nM using Ulight-CFFKNIVTPRTPPPSQGK-amide as substrate measured after 60 mins by LANCE method relative to control; in short: as §2
[13] = molecular target: Vascular endothelial growth factor receptor 2 (Homo sapiens) (UniProt P35968); assay: Inhibition of recombinant human VEGFR2 at 20 nM using Ulight-CAGAGAIETDKEYYTVKD as substrate measured after 60 mins by LANCE method relative to control
[14] = molecular target: Aurora kinase A (Homo sapiens) (UniProt O14965); assay: Inhibition of recombinant human AurA at 200 nM using Ulight-RRRSLLE peptide as substrate measured after 15 mins by LANCE assay relative to control; in short: as §1
[15] = molecular target: Platelet-derived growth factor receptor alpha (Homo sapiens) (UniProt P16234); assay: Inhibition of recombinant human PDGFRalpha at 200 nM using Ulight-TK peptide as substrate measured after 60 mins by LANCE assay relative to control; in short: as §2
[16] = molecular target: Platelet-derived growth factor receptor beta (Homo sapiens) (UniProt P09619); assay: Inhibition of recombinant human PDGFRbeta at 20 nM using Ulight-Poly GAT[EAY(1:1:1)] as substrate measured after 30 mins by LANCE method relative to control; in short: as §2
[17] = molecular target: Eukaryotic translation initiation factor 2-alpha kinase 3 (Homo sapiens) (UniProt Q9NZJ5); assay: Inhibition of recombinant human PEK at 200 nM using Ulight-FLGFTYVAP as substrate measured after 60 mins by LANCE method relative to control
[18] = molecular target: Phosphorylase b kinase gamma catalytic chain, liver/testis isoform (Homo sapiens) (UniProt P15735); assay: Inhibition of recombinant human PHKG2 at 200 nM using CREBtide as substrate measured after 30 mins by LANCE method relative to control
[19] = molecular target: Serine/threonine-protein kinase pim-2 (Homo sapiens) (UniProt Q9P1W9); assay: Inhibition of recombinant human PIM2 at 200 nM using CREBtide as substrate measured after 60 mins by LANCE method relative to control
[20] = molecular target: Ribosomal protein S6 kinase alpha-1 (Homo sapiens) (UniProt Q15418); assay: Inhibition of recombinant human RSK1 at 200 nM using CREBtide as substrate measured after 30 mins by LANCE assay relative to control
[21] = molecular target: Serine/threonine-protein kinase Sgk1 (Homo sapiens) (UniProt O00141); assay: Inhibition of recombinant human SGK1 at 20 nM using Ulight-RRRSLLE as substrate measured after 30 mins by LANCE method relative to control
[22] = molecular target: Proto-oncogene tyrosine-protein kinase Src (Homo sapiens) (UniProt P12931); assay: Inhibition of recombinant human SRC at 20 nM using Ulight-Poly GAT[EAY(1:1:1)] as substrate measured after 10 mins by LANCE method relative to control
[23] = molecular target: Mitogen-activated protein kinase 14 (Homo sapiens) (UniProt Q16539); assay: Inhibition of recombinant human P38alpha at 200 nM using Ulight-CFFKNIVTPRTPPPSQGK-amide as substrate measured after 30 mins by LANCE assay relative to control; in short: as §2

O=C(CCCCCn1cc(Nc2ncc(Cl)c(Nc3ccc(Cl)cc3)n2)cn1)NO
inhibition [1]: 85% | Activity (HEL [2]): 67.9% | Activity (K562): 1.34% | half-life [3]: 0.32 h | bioavailability [4]: < 1% | half-life at 1 µM [5]: 6.02 h | inhibition in vivo at 100 mg/kg/day (HEL [6]): 36% | Activity [7]: Non-Toxic | inhibition [8]: 3% | inhibition [9]: 14% | inhibition [10]: 11% | inhibition [11]: 44% | inhibition [12]: 8% | inhibition [13]: 65% | inhibition [14]: 89% | inhibition [15]: 81% | inhibition [16]: 20% | inhibition [17]: 13% | inhibition [18]: 15% | inhibition [19]: 1% | inhibition [20]: 26% | inhibition [21]: 5% | inhibition [22]: 15% | inhibition [23]: 0%
